Laboratory results published in PMC4336329 (PLoS ONE, 2015).
In all, about 310,000 compounds went through this assay and about 14,000 (4.5%) showed an effect of 50% or more. The effect is printed as a negative number. The list shows a part of the results.

What follows are compounds tested against human ether-à-go-go-related gene (hERG) potassium channel (human, UniProt Q12809) (assay: primary screen, population patch clamp on CHO cells stably expressing hERG).
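Further: peak tail current of the secondary pulse compared with the same well before compound.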

Sequence of human ether-à-go-go-related gene (hERG) potassium channel (Q12809 whole entry, looked up): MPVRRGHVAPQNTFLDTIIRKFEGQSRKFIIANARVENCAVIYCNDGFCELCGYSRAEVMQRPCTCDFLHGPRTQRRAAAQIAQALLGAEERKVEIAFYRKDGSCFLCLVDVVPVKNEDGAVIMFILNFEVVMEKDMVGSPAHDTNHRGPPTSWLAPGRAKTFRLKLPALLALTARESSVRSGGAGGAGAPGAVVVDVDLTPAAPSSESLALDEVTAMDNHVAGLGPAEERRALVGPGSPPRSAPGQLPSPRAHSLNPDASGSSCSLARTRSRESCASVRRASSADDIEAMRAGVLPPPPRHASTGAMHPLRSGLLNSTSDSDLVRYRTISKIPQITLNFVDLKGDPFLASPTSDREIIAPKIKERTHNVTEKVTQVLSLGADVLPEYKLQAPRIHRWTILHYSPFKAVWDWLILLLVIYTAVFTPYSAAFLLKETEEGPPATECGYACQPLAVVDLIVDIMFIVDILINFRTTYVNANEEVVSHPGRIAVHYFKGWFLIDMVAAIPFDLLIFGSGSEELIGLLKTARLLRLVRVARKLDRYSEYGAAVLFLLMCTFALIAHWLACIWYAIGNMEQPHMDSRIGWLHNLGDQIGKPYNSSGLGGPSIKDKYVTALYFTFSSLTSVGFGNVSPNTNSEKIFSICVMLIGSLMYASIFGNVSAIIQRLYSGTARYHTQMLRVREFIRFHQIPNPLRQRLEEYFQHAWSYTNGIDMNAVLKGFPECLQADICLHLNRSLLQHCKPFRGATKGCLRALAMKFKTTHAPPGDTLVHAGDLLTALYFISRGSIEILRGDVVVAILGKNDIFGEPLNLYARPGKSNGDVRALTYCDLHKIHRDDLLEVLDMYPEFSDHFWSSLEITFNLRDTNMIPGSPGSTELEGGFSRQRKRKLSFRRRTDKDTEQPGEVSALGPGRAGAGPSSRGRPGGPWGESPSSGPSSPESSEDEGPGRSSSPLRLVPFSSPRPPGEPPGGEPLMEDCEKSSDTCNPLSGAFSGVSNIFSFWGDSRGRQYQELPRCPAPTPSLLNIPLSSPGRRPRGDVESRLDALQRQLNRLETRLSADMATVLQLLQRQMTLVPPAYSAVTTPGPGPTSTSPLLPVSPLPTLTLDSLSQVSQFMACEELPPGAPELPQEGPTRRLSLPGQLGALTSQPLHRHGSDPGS

First: O=C(O)CNC(=O)c1ccc2c(c1)OCCO2
Second: O=C(NCC(=O)N1CCN(S(=O)(=O)c2ccccc2F)CC1)c1ccc2c(c1)OCO2
The “hERG current change (%, negative = inhibition) at 10uM” value of the first is lower: 2.5% for the first, 9.59% for the second.

Going from `N#C/C(=C\c1c(Oc2ccccc2Cl)nc2ccccn2c1=O)C(=O)NC1CCS(=O)(=O)C1` (stereo not shown) to `O=C(CNC(=O)c1ccccc1F)NCCN1C(=O)S/C(=C\c2ccccc2Cl)C1=O`, the “hERG current change (%, negative = inhibition) at 10uM” value falls from 23.1% to 2.23%.

Going from `Cc1ccc(C23CC4CC(CC(C(=O)NN)(C4)C2)C3)cc1` to `Cc1ccc(NC(=O)CSCC#N)cc1`, the “hERG current change (%, negative = inhibition) at 10uM” value falls from 15.8% to 12.5%.

Compared with `COc1cccc(C(=O)Nc2ccc(NC(=O)c3ccco3)nc2)c1`, `Cc1ccn2cc(-c3ccc(NC(=O)c4ccco4)cc3)nc2c1` is lower in “hERG current change (%, negative = inhibition) at 10uM” value: 12.2% for the first, -21% for the second.

Going from `O=C(CSc1ccccn1)Nc1nncs1` to `O=C(CSc1ncn(-c2ccccc2)n1)Nc1ccc2c(c1)OCCO2`, the “hERG current change (%, negative = inhibition) at 10uM” value rises from -3.82% to 15.9%.

First: [O-][n+]1c2ccccc2c2n1CCN1CCOC21c1ccc(Cl)cc1 (stereo not shown)
Second: Cc1ccccc1COC(=O)c1cc([N+](=O)[O-])ccc1N1CCOCC1
The “hERG current change (%, negative = inhibition) at 10uM” value of the first is lower: -42.3% for the first, -18.8% for the second.

Compared with `COc1cc2cnc(-c3ccccc3)c(-c3ccc(C#N)cc3)c2cc1OC`, `Cl.c1ccc(-c2cc(-c3ccncc3)nc3ccc4ccccc4c23)cc1` is higher in “hERG current change (%, negative = inhibition) at 10uM” value: 0.457% for the first, 3.52% for the second.

First: C/C(=N\NC(=O)c1ccccc1F)c1ccc(C#N)cc1
Second: C/C(=N\Nc1cccc([N+](=O)[O-])c1)c1cc(F)ccc1O
The “hERG current change (%, negative = inhibition) at 10uM” value of the first is lower: 2.58% for the first, 15.9% for the second.

First: CC(C)N(c1ccccc1)c1ccc(NC(=O)COC(=O)CCN2C(=O)c3cccc([N+](=O)[O-])c3C2=O)cc1
Second: N#Cc1c(NC(=O)COC(=O)C2CC3C=CC2C3)oc(-c2ccccc2)c1-c1ccccc1 (stereo not shown)
The “hERG current change (%, negative = inhibition) at 10uM” value of the first is lower: 2.79% for the first, 11.6% for the second.

Compared with `COCc1cc(OC(=O)N(C)C)nc2c1c(C)nn2C`, `CSc1ccccc1OCc1cc(C(=O)N(C)CCc2c(C)n[nH]c2C)no1` is higher in “hERG current change (%, negative = inhibition) at 10uM” value: -9.48% for the first, -6.07% for the second.

Compared with `O=C(NCc1ccco1)C1CCN(c2nnc(-n3cccc3)s2)CC1`, `COC(C(=O)Nc1ccnn1C1CCN(Cc2nccs2)CC1)c1ccccc1` (stereo not shown) is higher in “hERG current change (%, negative = inhibition) at 10uM” value: -49.1% for the first, 0.847% for the second.

Compared with `CCOc1ccccc1NC(=O)c1ccc2nccnc2c1`, `O=C(c1ccncc1)N1c2ccccc2Sc2ccccc21` is lower in “hERG current change (%, negative = inhibition) at 10uM” value: 25.8% for the first, 18.2% for the second.

Going from `Cc1cc(-c2nn(-c3ccccc3F)cc2CN2CCC(O)CC2)c(C)s1` to `CC(C)c1cc(CNC(=O)C2CCC(=O)N(Cc3ccccc3F)C2)on1` (stereo not shown), the “hERG current change (%, negative = inhibition) at 10uM” value rises from -28.9% to 15.2%.

Compared with `CC(=O)N1CCCc2cc(S(=O)(=O)N(C)Cc3ccccc3)ccc21`, `CCN(CC)S(=O)(=O)c1ccc(NS(=O)(=O)c2ccc(O)c([N+](=O)[O-])c2)cc1` is higher in “hERG current change (%, negative = inhibition) at 10uM” value: -26.9% for the first, 0.141% for the second.

Compared with `CCNc1nc(N2CCOCC2)nc(N(c2ccccc2)c2ccccc2)n1`, `Cc1ccc(-c2nc(CS(=O)(=O)CC(=O)N3CCOCC3)c(C)o2)cc1` is higher in “hERG current change (%, negative = inhibition) at 10uM” value: -12.9% for the first, 15.3% for the second.

First: CCC(=O)c1cc(F)c(N2CCN(CC)CC2)cc1C
Second: Cc1ccc(C)c(N2CCN(C(=O)Cc3ccc(NC4=NC5CS(=O)(=O)CC5S4)cc3)CC2)c1 (stereo not shown)
The “hERG current change (%, negative = inhibition) at 10uM” value of the first is lower: -10.7% for the first, 2.82% for the second.

Going from `Cc1ccc(C(=O)COC(=O)CCc2ccc(S(=O)(=O)N3CCCCC3)cc2)cc1` to `O=C(Cc1ccc2c(c1)OCCO2)N1CCN(S(=O)(=O)c2cccc(C(F)(F)F)c2)CC1`, the “hERG current change (%, negative = inhibition) at 10uM” value rises from -10.8% to -7.76%.

Going from `Cc1ccc(-c2csc3ncn(-n4c(C)ccc4C)c(=O)c23)o1` to `Cc1sc(NC(=O)Cn2c(=O)oc3ccccc32)nc1-c1ccc(Cl)cc1`, the “hERG current change (%, negative = inhibition) at 10uM” value rises from -2.83% to 9.72%.

Going from `CCCN(Cc1nnc(-c2ccccc2Cl)o1)C(=O)c1oc2ccccc2c1C` to `Cc1onc(-c2c(Cl)cccc2Cl)c1C(=O)Nc1ccc2c(c1)OCCO2`, the “hERG current change (%, negative = inhibition) at 10uM” value rises from -13.1% to 0.47%.

First: COc1ccc(N2CCC(CNC(=O)Nc3ccc(C)c(C)c3)C2)cc1 (stereo not shown)
Second: COc1ccc(OCC(=O)N/N=C/c2ccc(O[C@@H]3O[C@H](CO)[C@@H](O)[C@H](O)[C@H]3O)cc2)cc1
The “hERG current change (%, negative = inhibition) at 10uM” value of the first is lower: 11.4% for the first, 12.8% for the second.

Compared with `O=C(Nc1nc(-c2ccc(Cl)s2)cs1)c1cccs1`, `Cn1ccc(NC(=O)Nc2cccc([N+](=O)[O-])c2)n1` is lower in “hERG current change (%, negative = inhibition) at 10uM” value: 7.43% for the first, -2.02% for the second.

Compared with `Cc1ccccc1C1CC(c2ccccc2OC(F)F)Nc2ncnn21` (stereo not shown), `CC(Oc1cccc(Cl)c1)C(=O)N1CCN(c2ncccn2)CC1` (stereo not shown) is lower in “hERG current change (%, negative = inhibition) at 10uM” value: -13.2% for the first, -28.1% for the second.

Going from `CC(=O)Nc1cc(C(N)=O)c(Cl)cc1Cl` to `Cc1cc(C(=O)OCCO)c(C#N)c(N)n1`, the “hERG current change (%, negative = inhibition) at 10uM” value rises from 3.42% to 21%.

Compared with `COC(=O)C(C(=O)OC)C(C[N+](=O)[O-])c1ccc(OC)cc1` (stereo not shown), `O=C(O)CCN(CCC(=O)O)S(=O)(=O)c1ccccc1` is higher in “hERG current change (%, negative = inhibition) at 10uM” value: -6.91% for the first, 0.0188% for the second.

First: Cc1cc(C)c(S(=O)(=O)N2CCN(S(=O)(=O)N3CCCCCC3)CC2)c(C)c1
Second: Cc1c(OCC(=O)NCCCN2CCOCC2)ccc2c3c(c(=O)oc12)CCC3
The “hERG current change (%, negative = inhibition) at 10uM” value of the first is lower: 4.64% for the first, 6.71% for the second.

Going from `Cc1ccc(S(=O)(=O)N/N=C\c2ccc3c(c2)OCO3)cc1C` to `CCOCCCNC(=O)c1ccc2c(=O)n(Cc3ccc4c(c3)OCO4)c(=S)[nH]c2c1`, the “hERG current change (%, negative = inhibition) at 10uM” value rises from -11.8% to 29.8%.

Compared with `CC1CCC(NC(=O)C2c3ccccc3C(=O)N2CCCN2CCOCC2)CC1` (stereo not shown), `Cc1ccc(F)cc1NC(=O)CSCc1c(C)noc1C` is higher in “hERG current change (%, negative = inhibition) at 10uM” value: -15.8% for the first, -3.15% for the second.

With `CCCc1c(C(=O)N/N=C(/C)c2ccncc2)nnn1-c1nonc1N` the “hERG current change (%, negative = inhibition) at 10uM” value was 0.629%.
